Biological target: T1, approximately 55 kDa protein derived from the human pancreatic cancer cell line PANC-1 (vimentin) (human, UniProt P08670)
T1 construct: Endogenous protein on Western blots of the PANC-1 insoluble (membrane) fraction; also called antigenic protein
Test: Western blot of the PANC-1 insoluble fraction
Procedure: Each 10 μg of the proteins in the insoluble fraction after solubilization of the homogenate of the PANC-1 cell with the RIPA buffer was subjected to electrophoresis on 10% acrylamide gel. The protein was transferred from the gel to a PVDF membrane and the membrane was blocked. The transferred PVDF membrane was reacted with the purified γ-HoA. described in Example (13-7) at 37° C. for 1 hour. The PVDF membrane was washed with PBS-T. The resulting PVDF membrane was added with an HRP-conjugated goat antibody against a human antibody (1,000-fold dilution, CAPPEL) and further reacted at 37° C. for 1 hour.

T1 sequence (P08670 2-466 limits assumed): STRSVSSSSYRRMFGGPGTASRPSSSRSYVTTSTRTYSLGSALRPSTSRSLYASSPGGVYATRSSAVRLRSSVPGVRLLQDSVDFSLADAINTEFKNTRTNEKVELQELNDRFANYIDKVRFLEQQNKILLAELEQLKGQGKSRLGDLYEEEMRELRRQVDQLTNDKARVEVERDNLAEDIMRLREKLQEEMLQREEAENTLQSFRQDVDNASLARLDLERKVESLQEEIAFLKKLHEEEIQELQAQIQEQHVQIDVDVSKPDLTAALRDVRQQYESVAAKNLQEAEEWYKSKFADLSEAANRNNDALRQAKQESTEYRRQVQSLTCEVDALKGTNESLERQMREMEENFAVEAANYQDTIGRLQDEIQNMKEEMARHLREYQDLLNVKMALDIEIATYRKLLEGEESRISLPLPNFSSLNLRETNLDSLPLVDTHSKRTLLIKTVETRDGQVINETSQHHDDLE

binding result: binds
B1: γ-HoA. (recombinant HoAKs-1 antibody) (antibody, V domains shown)
VH: EVQLVESGGGVVQPGRSLRLSCAASGFTFSSYAMHWVRQAPGKGLEWVAVISYDGSNKYYADSVKGRFTISRDNSKNTLYLQMNSLRAEDTAVYYCARDRHSYDFWSGSLDYWGQGTLVTVSS
VL: [about 100 residues not shown]
notes: Human IgG1 kappa recombinant antibody made in CHO cells; also called γ-HoA. antibody; HoAKs-1 recombinant antibody

Source: patent US20060088538A1 (MITSUBISHI PHARMA, published 2006)
